# Reference: the supplement of paper PMC8728848
# This is one part of the list.
# B1: NESD (Drosophila melanogaster), NP_610025.1 (protein)
# chain: MGHHHHHHSSGVDLGTENLYFQSMMEVFTFEKSYLERLKEAEAVLSWEGAVMPASQVRSEWKSYVELKIEPAGWQAIWKIPRVICEDLKLRYPTIVYGYVEQVIFDELKAVFVVTAVQDSDVHLPESNEVSLVELWPTVQQENAALNVDTTAECIDRLRFFYTHVWMPWDKDYDDDRDWVQQHLQARIQLVCDLSKNRLPRPLALHMRTLLAEAKYIQQRLDYLELDLSDAESDDEAVELNDSVAEPARKQSKAGSANGCLNVSSLPVTDLMCLHLRMAIIRSEFEILENPEMRRAYSELQSNSLKRLRCSSGRTRQSEDLLVERNSISHVVTLPGKLQQQLELLKLAQTLVKPESKVQLSNTLQDVLSICQSNDDILLSPGEHTIKFLEHLNDNGSLRGLTQPEAILSPAADLSLLPVVCSSDEDSTLLVIDGDYTLSELVLDCRHVRRGILLRNGTLTMRGCRLLGDGSSSTQEGIVCMPGASVELKSCLIENFAVGVSMRPKSSAELGSVQFKTCKTGLELLEKSASVNLQGSKCSFENCALGILADGFVLGEQRTEKVLVLNKFSELQRYNEDNLLGNCSFYNCKKNVRVFNESGQLLAQRSHQQLLEDELGGENKENIQLV
# Key:
# Test in all cases: glycan array binding signal (z-score within array); higher = stronger binding
# Details in all cases: glycan notation: IUPAC condensed, linker removed
# [1] = target: Gal(b1-4)GlcNAc(b1-3)Gal(b1-4)GlcNAc(b1-3)Gal(b1-4)GlcNAc
# Procedure, shortened: (§1)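 Negative Z-scores can be read as non-binding. The Z-score is calculated within each array and then averaged across arrays of one protein sequence at different concentrations or buffers and across linkers. Arrays, 3228 in all, were curated from the Consortium for Functional Glycomics database and kept only where the protein sequence was available.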
# [2] = target: Gal(b1-4)GlcNAc(b1-3)Gal(b1-4)[Fuc(a1-3)]GlcNAc(b1-3)Gal(b1-4)[Fuc(a1-3)]GlcNAc
# Procedure, shortened: as §1
# [3] = target: Gal(b1-4)GlcNAc(b1-3)GalNAc
# Procedure, shortened: as §1
# [4] = target: Gal(b1-4)GlcNAc(b1-3)[Gal(b1-4)GlcNAc(b1-6)]Gal(b1-4)GlcNAc
# Procedure, shortened: as §1
# [5] = target: Gal(b1-4)GlcNAc(b1-3)[GlcNAc(b1-6)]Gal(b1-4)GlcNAc
# Procedure, shortened: as §1
# [6] = target: Gal(b1-4)GlcNAc(b1-6)Gal(b1-4)GlcNAc
# Procedure, shortened: as §1
# [7] = target: Gal(b1-4)GlcNAc(b1-6)Gal(b1-4)GlcNAc(b1-6)GalNAc
# Procedure, shortened: as §1
# [8] = target: Gal(b1-4)GlcNAc(b1-6)GalNAc
# Procedure, shortened: as §1
# [9] = target: Gal(b1-4)GlcNAc(b1-6)[Gal(b1-3)]GalNAc
# Procedure, shortened: as §1
# Gal3S(b1-3)GalNAc = target: Gal3S(b1-3)GalNAc
# Procedure, shortened: as §1
# Gal3S(b1-3)GlcNAc = target: Gal3S(b1-3)GlcNAc
# Procedure, shortened: as §1
# [10] = target: Gal3S(b1-3)[Fuc(a1-4)]GlcNAc
# Procedure, shortened: as §1
# Gal3S(b1-4)Glc = target: Gal3S(b1-4)Glc
# Procedure, shortened: as §1
# Gal3S(b1-4)Glc6S = target: Gal3S(b1-4)Glc6S
# Procedure, shortened: as §1
# Gal3S(b1-4)GlcNAc = target: Gal3S(b1-4)GlcNAc
# Procedure, shortened: as §1
# Gal3S(b1-4)GlcNAc6S = target: Gal3S(b1-4)GlcNAc6S
# Procedure, shortened: as §1
# [11] = target: Gal3S(b1-4)[Fuc(a1-3)]Glc
# Procedure, shortened: as §1
# Gal3S4S(b1-4)GlcNAc = target: Gal3S4S(b1-4)GlcNAc
# Procedure, shortened: as §1
# Gal3S6S(b1-4)GlcNAc = target: Gal3S6S(b1-4)GlcNAc
# Procedure, shortened: as §1
# Gal3S6S(b1-4)GlcNAc6S = target: Gal3S6S(b1-4)GlcNAc6S
# Procedure, shortened: as §1
# Gal4S(b1-4)GlcNAc = target: Gal4S(b1-4)GlcNAc
# Procedure, shortened: as §1
# Gal4S6S(b1-4)GlcNAc = target: Gal4S6S(b1-4)GlcNAc
# Procedure, shortened: as §1
# Gal6S(b1-4)Glc = target: Gal6S(b1-4)Glc
# Procedure, shortened: as §1
# Gal6S(b1-4)Glc6S = target: Gal6S(b1-4)Glc6S
# Procedure, shortened: as §1
# Gal6S(b1-4)GlcNAc = target: Gal6S(b1-4)GlcNAc
# Procedure, shortened: as §1
# Gal6S(b1-4)GlcNAc6S = target: Gal6S(b1-4)GlcNAc6S
# Procedure, shortened: as §1
# GalNAc(a1-3)Gal = target: GalNAc(a1-3)Gal
# Procedure, shortened: as §1
# GalNAc(a1-3)GalNAc = target: GalNAc(a1-3)GalNAc
# Procedure, shortened: as §1
# GalNAc(b1-3)Gal = target: GalNAc(b1-3)Gal
# Procedure, shortened: as §1
# [12] = target: GalNAc(b1-3)Gal(a1-4)Gal(b1-4)GlcNAc
# Procedure, shortened: as §1
# GalNAc(b1-3)GalNAc = target: GalNAc(b1-3)GalNAc
# Procedure, shortened: as §1
# GalNAc(b1-4)GlcNAc = target: GalNAc(b1-4)GlcNAc
# Procedure, shortened: as §1
# Glc(a1-4)Glc = target: Glc(a1-4)Glc
# Procedure, shortened: as §1
# Glc(a1-6)Glc(a1-6)Glc = target: Glc(a1-6)Glc(a1-6)Glc
# Procedure, shortened: as §1
# Glc(b1-4)Glc = target: Glc(b1-4)Glc
# Procedure, shortened: as §1
# Glc(b1-6)Glc = target: Glc(b1-6)Glc
# Procedure, shortened: as §1
# GlcA(b1-3)Gal = target: GlcA(b1-3)Gal
# Procedure, shortened: as §1
# GlcA(b1-3)GlcNAc = target: GlcA(b1-3)GlcNAc
# Procedure, shortened: as §1
# GlcA(b1-6)Gal = target: GlcA(b1-6)Gal
# Procedure, shortened: as §1
# [13] = target: GlcNAc(a1-3)Gal(b1-4)GlcNAc
# Procedure, shortened: as §1
# [14] = target: GlcNAc(a1-6)Gal(b1-4)GlcNAc
# Procedure, shortened: as §1
# [15] = target: GlcNAc(b1-2)Gal(b1-3)GalNAc
# Procedure, shortened: as §1
# [16] = target: GlcNAc(b1-2)Man(a1-3)[GlcNAc(b1-2)Man(a1-6)]Man(b1-4)GlcNAc(b1-4)GlcNAc
# Procedure, shortened: as §1
# GlcNAc(b1-3)Gal = target: GlcNAc(b1-3)Gal
# Procedure, shortened: as §1
# [17] = target: GlcNAc(b1-3)Gal(b1-3)GalNAc
# Procedure, shortened: as §1
# GlcNAc(b1-3)Gal(b1-4)Glc = target: GlcNAc(b1-3)Gal(b1-4)Glc
# Procedure, shortened: as §1
# [18] = target: GlcNAc(b1-3)Gal(b1-4)GlcNAc
# Procedure, shortened: as §1
# [19] = target: GlcNAc(b1-3)Gal(b1-4)GlcNAc(b1-3)Gal(b1-4)GlcNAc
# Procedure, shortened: as §1
# GlcNAc(b1-3)GalNAc = target: GlcNAc(b1-3)GalNAc
# Procedure, shortened: as §1
# GlcNAc(b1-3)Man = target: GlcNAc(b1-3)Man
# Procedure, shortened: as §1
# [20] = target: GlcNAc(b1-3)[GlcNAc(b1-4)][GlcNAc(b1-6)]GlcNAc
# Procedure, shortened: as §1
# [21] = target: GlcNAc(b1-3)[GlcNAc(b1-6)]Gal(b1-4)GlcNAc
# Procedure, shortened: as §1
# [22] = target: GlcNAc(b1-3)[GlcNAc(b1-6)]GalNAc
# Procedure, shortened: as §1
# [23] = target: GlcNAc(b1-4)Gal(b1-4)GlcNAc
# Procedure, shortened: as §1
# GlcNAc(b1-4)GlcNAc = target: GlcNAc(b1-4)GlcNAc
# Procedure, shortened: as §1
# [24] = target: GlcNAc(b1-4)GlcNAc(b1-4)GlcNAc
# Procedure, shortened: as §1
# [25] = target: GlcNAc(b1-4)GlcNAc(b1-4)GlcNAc(b1-4)GlcNAc(b1-4)GlcNAc
# Procedure, shortened: as §1
# [26] = target: GlcNAc(b1-4)GlcNAc(b1-4)GlcNAc(b1-4)GlcNAc(b1-4)GlcNAc(b1-4)GlcNAc
# Procedure, shortened: as §1
# [27] = target: GlcNAc(b1-4)[GlcNAc(b1-6)]GalNAc
# Procedure, shortened: as §1
# [28] = target: GlcNAc(b1-6)Gal(b1-4)GlcNAc
# Procedure, shortened: as §1
binder,measurement,setting,value
B1,glycan array binding signal (z-score),[1],0.303
same,glycan array binding signal (z-score),[2],-0.398
same,glycan array binding signal (z-score),[3],1.15
same,glycan array binding signal (z-score),[4],-0.288
same,glycan array binding signal (z-score),[5],-0.141
same,glycan array binding signal (z-score),[6],-0.226
same,glycan array binding signal (z-score),[7],0.204
same,glycan array binding signal (z-score),[8],-0.052
same,glycan array binding signal (z-score),[9],-0.481
same,glycan array binding signal (z-score),Gal3S(b1-3)GalNAc,-0.093
same,glycan array binding signal (z-score),Gal3S(b1-3)GlcNAc,0.565
same,glycan array binding signal (z-score),[10],0.667
same,glycan array binding signal (z-score),Gal3S(b1-4)Glc,0.002
same,glycan array binding signal (z-score),Gal3S(b1-4)Glc6S,0.989
same,glycan array binding signal (z-score),Gal3S(b1-4)GlcNAc,0.142
same,glycan array binding signal (z-score),Gal3S(b1-4)GlcNAc6S,0.265
same,glycan array binding signal (z-score),[11],-0.195
same,glycan array binding signal (z-score),Gal3S4S(b1-4)GlcNAc,0.201
same,glycan array binding signal (z-score),Gal3S6S(b1-4)GlcNAc,0.381
same,glycan array binding signal (z-score),Gal3S6S(b1-4)GlcNAc6S,1.17
same,glycan array binding signal (z-score),Gal4S(b1-4)GlcNAc,0.349
same,glycan array binding signal (z-score),Gal4S6S(b1-4)GlcNAc,0.471
same,glycan array binding signal (z-score),Gal6S(b1-4)Glc,0.025
same,glycan array binding signal (z-score),Gal6S(b1-4)Glc6S,0.976
same,glycan array binding signal (z-score),Gal6S(b1-4)GlcNAc,0.164
same,glycan array binding signal (z-score),Gal6S(b1-4)GlcNAc6S,0.078
same,glycan array binding signal (z-score),GalNAc(a1-3)Gal,-0.167
same,glycan array binding signal (z-score),GalNAc(a1-3)GalNAc,-0.092
same,glycan array binding signal (z-score),GalNAc(b1-3)Gal,0.297
same,glycan array binding signal (z-score),[12],-0.427
same,glycan array binding signal (z-score),GalNAc(b1-3)GalNAc,-0.339
same,glycan array binding signal (z-score),GalNAc(b1-4)GlcNAc,-0.228
same,glycan array binding signal (z-score),Glc(a1-4)Glc,0.431
same,glycan array binding signal (z-score),Glc(a1-6)Glc(a1-6)Glc,6.3
same,glycan array binding signal (z-score),Glc(b1-4)Glc,-0.704
same,glycan array binding signal (z-score),Glc(b1-6)Glc,0.139
same,glycan array binding signal (z-score),GlcA(b1-3)Gal,0.128
same,glycan array binding signal (z-score),GlcA(b1-3)GlcNAc,0.025
same,glycan array binding signal (z-score),GlcA(b1-6)Gal,0.566
same,glycan array binding signal (z-score),[13],-0.595
same,glycan array binding signal (z-score),[14],-0.297
same,glycan array binding signal (z-score),[15],-0.28
same,glycan array binding signal (z-score),[16],-0.272
same,glycan array binding signal (z-score),GlcNAc(b1-3)Gal,0.579
same,glycan array binding signal (z-score),[17],-0.416
same,glycan array binding signal (z-score),GlcNAc(b1-3)Gal(b1-4)Glc,-0.307
same,glycan array binding signal (z-score),[18],-0.359
same,glycan array binding signal (z-score),[19],-0.277
same,glycan array binding signal (z-score),GlcNAc(b1-3)GalNAc,-0.408
same,glycan array binding signal (z-score),GlcNAc(b1-3)Man,-0.252
same,glycan array binding signal (z-score),[20],-0.256
same,glycan array binding signal (z-score),[21],-0.004
same,glycan array binding signal (z-score),[22],-0.207
same,glycan array binding signal (z-score),[23],-0.079
same,glycan array binding signal (z-score),GlcNAc(b1-4)GlcNAc,-0.326
same,glycan array binding signal (z-score),[24],0.322
same,glycan array binding signal (z-score),[25],-0.139
same,glycan array binding signal (z-score),[26],0.068
same,glycan array binding signal (z-score),[27],-0.261
same,glycan array binding signal (z-score),[28],-0.136
